# In the supplement of paper PMC11880418:
# Structures can show the parent of a compound that is named as a salt. Some of the results follow. The data scatter; read single values as rough.
# Tested on: MKN45
# Assay: ALDHbr (CSC) cell proportion score relative to DMSO vehicle (ratio to DMSO); breast (SUM159) / gastric (MKN45) / pancreatic (PANC1) / colon cancer lines; ALDHbr cells have high ALDH activity and are rich in cancer stem cells (CSC); higher = more CSC (ALDHbr) cells remaining
# Conditions: 10 µM; 72 h
# 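Note: High-content imaging of ALDEFLUOR-stained cells with Hoechst-labelled nuclei in 384-well plates, triplicate wells, scored as Z-score against 0.1% DMSO vehicle, negative meaning fewer ALDHbr cells.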
row,SMILES,ALDHbr
1,NCCc1c[nH]cn1 [Histamine dihydrochloride],1.01
2,CC(C)(Oc1ccc(C2CC2(Cl)Cl)cc1)C(=O)O (centres undefined) [Ciprofibrate],1.02
3,CC(C)(C)NCC(O)COc1cccc2c1CC(O)C(O)C2 (centres undefined) [Nadolol],0.907
4,CCc1oc2ccccc2c1C(=O)c1cc(Br)c(O)c(Br)c1 [Benzbromarone],1.03
5,C[C@]12CC[C@@H]3c4ccc(O)cc4CC[C@H]3[C@@H]1CC[C@@H]2O [Estradiol-17 beta],0.833
6,CC(=O)[C@H]1CC[C@H]2[C@@H]3CCC4=CC(=O)CC[C@]4(C)[C@H]3CC[C@]12C [Progesterone],0.332
7,C[C@H](N)[C@H](O)c1cccc(O)c1 [Metaraminol bitartrate],0.927
8,O=C1c2c(O)cccc2Cc2cccc(O)c21 [Anthralin],1.4
9,CCCCOc1cc(C(=O)OCCN(CC)CC)ccc1N [Benoxinate hydrochloride],0.726
10,O=C(NCC(O)CO)c1c(I)c(C(=O)NCC(O)CO)c(I)c(N(CCO)C(=O)CO)c1I (centres undefined) [Ioversol],1
11,COc1ccc(CN2CCN(C(c3ccc(F)cc3)c3ccc(F)cc3)CC2)c(OC)c1OC [Lomerizine hydrochloride],0.543
12,C[C@]12CC[C@@H]3c4ccc(O)cc4CC[C@H]3[C@@H]1CCC2=O [Estrone],0.967
13,Oc1c(Cl)cc(Cl)c2cccnc12 [Chloroxine],0.581
14,CC[C@H]1OC(=O)[C@H](C)[C@@H](O[C@H]2C[C@@](C)(OC)[C@@H](O)[C@H](C)O2)[C@H](C)[C@@H](O[C@@H]2O[C@H](C)C[C@H](N(C)C)[C@H]2O)[C@](C)(OC)C[C@@H](C)C(=O)[C@H](C)[C@@H](O)[C@]1(C)O [Clarithromycin],1.04
